# According to the supplement of paper PMC8728848:
# The other results are listed elsewhere or left out.
# Assays:
# Experiment in all cases: glycan array binding signal (z-score within array); higher = stronger binding
# Settings in all cases: glycan notation: IUPAC condensed, linker removed
# [1] = target: Gal3S4S(b1-4)GlcNAc
# In short: (§1)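 Columns mapping to the same glycan were averaged after glycan names were converted to IUPAC-condensed notation. The data come from 3228 arrays in the Consortium for Functional Glycomics database, limited to those with an available protein sequence. Binding is reported as a within-array Z-score averaged across arrays of one protein sequence and across linkers.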
# [2] = target: Gal3S6S(b1-4)GlcNAc
# In short: as §1
# [3] = target: Gal3S6S(b1-4)GlcNAc6S
# In short: as §1
# [4] = target: Gal4S(b1-4)GlcNAc
# In short: as §1
# [5] = target: Gal4S6S(b1-4)GlcNAc
# In short: as §1
# [6] = target: Gal6P(b1-4)GlcNAc
# In short: as §1
# [7] = target: Gal6S(b1-3)GlcNAc
# In short: as §1
# [8] = target: Gal6S(b1-3)GlcNAc6S
# In short: as §1
# [9] = target: Gal6S(b1-4)Glc
# In short: as §1
# [10] = target: Gal6S(b1-4)Glc6S
# In short: as §1
# [11] = target: Gal6S(b1-4)GlcNAc
# In short: as §1
# [12] = target: Gal6S(b1-4)GlcNAc6S
# In short: as §1
# [13] = target: GalNAc(a1-3)Gal
# In short: as §1
# [14] = target: GalNAc(a1-3)GalNAc
# In short: as §1
# [15] = target: GalNAc(a1-3)GalNAc(b1-3)Gal(a1-4)Gal(b1-4)Glc
# In short: as §1
# [16] = target: GalNAc(a1-3)GalNAc(b1-3)Gal(a1-4)Gal(b1-4)GlcNAc
# In short: as §1
# [17] = target: GalNAc(b1-3)Gal
# In short: as §1
# [18] = target: GalNAc(b1-3)Gal(a1-4)Gal(b1-4)GlcNAc
# In short: as §1
# [19] = target: GalNAc(b1-3)Gal(a1-4)Gal(b1-4)GlcNAc(b1-3)Gal(b1-4)Glc
# In short: as §1
# [20] = target: GalNAc(b1-3)Gal(a1-6)Gal(b1-4)Glc
# In short: as §1
# [21] = target: GalNAc(b1-3)GalNAc
# In short: as §1
# [22] = target: GalNAc(b1-3)GlcNAc
# In short: as §1
# [23] = target: GalNAc(b1-4)Gal(b1-4)Glc
# In short: as §1
# [24] = target: GalNAc(b1-4)GlcNAc
# In short: as §1
# [25] = target: GalNAc(b1-4)GlcNAc(b1-2)Man
# In short: as §1
# [26] = target: GalNAc(b1-4)GlcNAc(b1-2)Man(a1-3)[GalNAc(b1-4)GlcNAc(b1-2)Man(a1-6)]Man(b1-4)GlcNAc(b1-4)GlcNAc
# In short: as §1
# [27] = target: GalNAc(b1-4)GlcNAc(b1-3)GalNAc(b1-4)GlcNAc
# In short: as §1
# [28] = target: GalNAc(b1-4)GlcNAc6S
# In short: as §1
# [29] = target: GalNAc(b1-6)GalNAc
# In short: as §1
# [30] = target: GalNAc3S(b1-4)GlcNAc
# In short: as §1
# [31] = target: GalNAc3S(b1-4)GlcNAc3S
# In short: as §1
# [32] = target: GalNAc3S(b1-4)[Fuc(a1-3)]GlcNAc
# In short: as §1
# [33] = target: GalNAc4S6S(b1-4)GlcNAc
# In short: as §1
# [34] = target: GalNAc6S(b1-4)GlcNAc
# In short: as §1
# [35] = target: Glc(a1-4)Glc
# In short: as §1
# [36] = target: Glc(a1-4)Glc(a1-4)Glc(a1-4)Glc
# In short: as §1
# [37] = target: Glc(a1-6)Glc(a1-6)Glc
# In short: as §1
# [38] = target: Glc(a1-6)Glc(a1-6)Glc(a1-6)Glc
# In short: as §1
binder,measurement,setting,value
"Siglec-9 (Homo sapiens), Q9Y336 (protein) MLLLLLPLLWGRERAEGQTSKLLTMQSSVTVQEGLCVHVPCSFSYPSHGWIYPGPVVHGYWFREGANTDQDAPVATNNPARAVWEETRDRFHLLGDPHTKNCTLSIRDARRSDAGRYFFRMEKGSIKWNYKHHRLSVNVTALTHRPNILIPGTLESGCPQNLTCSVPWACEQGTPPMISWIGTSVSPLDPSTTRSSVLTLIPQPQDHGTSLTCQVTFPGASVTTNKTVHLNVSYPPQNLTMTVFQGDGTVSTVLGNGSSLSLPEGQSLRLVCAVDAVDSNPPARLSLSWRGLTLCPSQPSNPGVLELPWVHLRDAAEFTCRAQNPLGSQQVYLNVSLQSKATSGVTQGVVGGAGATALVFLSFCVIFVVVRSCRKKSARPAAGVGDTGIEDANAVRGSASQGPLTEPWAEDSPPDQPPPASARSSVGEGELQYASLSFQMVKPWDSRGQEATDTEYSEIKIHR",glycan array binding signal (z-score),[1],-0.355
same,glycan array binding signal (z-score),[2],-0.091
same,glycan array binding signal (z-score),[3],0.189
same,glycan array binding signal (z-score),[4],-0.304
same,glycan array binding signal (z-score),[5],-0.088
same,glycan array binding signal (z-score),[6],0.071
same,glycan array binding signal (z-score),[7],-0.117
same,glycan array binding signal (z-score),[8],-0.069
same,glycan array binding signal (z-score),[9],-0.152
same,glycan array binding signal (z-score),[10],0.024
same,glycan array binding signal (z-score),[11],-0.174
same,glycan array binding signal (z-score),[12],-0.076
same,glycan array binding signal (z-score),[13],-0.173
same,glycan array binding signal (z-score),[14],-0.162
same,glycan array binding signal (z-score),[15],-0.273
same,glycan array binding signal (z-score),[16],-0.17
same,glycan array binding signal (z-score),[17],0.074
same,glycan array binding signal (z-score),[18],-0.021
same,glycan array binding signal (z-score),[19],-0.128
same,glycan array binding signal (z-score),[20],-0.143
same,glycan array binding signal (z-score),[21],-0.304
same,glycan array binding signal (z-score),[22],-0.117
same,glycan array binding signal (z-score),[23],0.137
same,glycan array binding signal (z-score),[24],-0.111
same,glycan array binding signal (z-score),[25],-0.119
same,glycan array binding signal (z-score),[26],-0.194
same,glycan array binding signal (z-score),[27],-0.061
same,glycan array binding signal (z-score),[28],0.058
same,glycan array binding signal (z-score),[29],-0.064
same,glycan array binding signal (z-score),[30],-0.152
same,glycan array binding signal (z-score),[31],-0.184
same,glycan array binding signal (z-score),[32],-0.151
same,glycan array binding signal (z-score),[33],0.223
same,glycan array binding signal (z-score),[34],-0.175
same,glycan array binding signal (z-score),[35],-0.15
same,glycan array binding signal (z-score),[36],-0.154
same,glycan array binding signal (z-score),[37],-0.217
same,glycan array binding signal (z-score),[38],-0.284
